# According to the supplement of paper PMC8728848:
# Some of the results follow.
# B1: Cohesin-mDCIR (Macaca mulatta) (protein)
# chain: GLDDLDAVRIKVDTVNAKPGDTVRIPVRFSGIPSKGIANCDFVYSYDPNVLEIIEIEPGDIIVDPNPDKSFDTAVYPDRKIIVFLFAEDSGTGAYAITKDGVFATIVAKVKEGAPNGLSVIKFVEVGGFANNDLVEQKTQFFDGGVNVGDTTEPATPTTPVTTPTTTDDLDAASFQKYSQLLEKMTTKDLVHTTLECVKKNMTTEETAWSCCPKNWKPFSSNCYFISTESASWQKSEKDCARMEAHLLVINTREEQDFIFQNLQEESAYFVGLSDPEGQRHWQWVDRTPYNESSTFWHPHEPSDPDERCVVLNFRKTPKRWGWNDVHCIVHQRSVCEMMKIHLHHHHHH
# Columns and labels:
# Test in all cases: glycan array binding signal (z-score within array); higher = stronger binding
# Settings in all cases: glycan notation: IUPAC condensed, linker removed
# [1] = target: Fuc(a1-2)[Gal(a1-3)]Gal(b1-4)GlcNAc(b1-2)Man(a1-3)[Fuc(a1-2)[Gal(a1-3)]Gal(b1-4)GlcNAc(b1-2)Man(a1-6)]Man(b1-4)GlcNAc(b1-4)[Fuc(a1-6)]GlcNAc
# In short: (§1)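 The binding signal is a Z-score computed within each array and averaged over linkers. Arrays of the same protein sequence at different concentrations or buffers were also averaged together. Data originate from 3228 arrays in the Consortium for Functional Glycomics database, kept only where the protein sequence was available.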
# [2] = target: Fuc(a1-2)[Gal(a1-3)]Gal(b1-4)GlcNAc(b1-3)GalNAc
# In short: as §1
# [3] = target: Fuc(a1-2)[Gal(a1-3)]Gal(b1-4)GlcNAc(b1-3)[Fuc(a1-2)[Gal(a1-3)]Gal(b1-4)GlcNAc(b1-6)]GalNAc
# In short: as §1
# [4] = target: Fuc(a1-2)[Gal(a1-3)]Gal(b1-4)GlcNAc(b1-6)GalNAc
# In short: as §1
# [5] = target: Fuc(a1-2)[Gal(a1-3)]Gal(b1-4)[Fuc(a1-3)]Glc
# In short: as §1
# [6] = target: Fuc(a1-2)[Gal(a1-3)]Gal(b1-4)[Fuc(a1-3)]GlcNAc
# In short: as §1
# [7] = target: Fuc(a1-2)[Gal(a1-3)]Gal(b1-4)[Fuc(a1-3)]GlcNAc(b1-3)GalNAc
# In short: as §1
# [8] = target: Fuc(a1-2)[Gal(a1-4)]Gal(b1-4)GlcNAc
# In short: as §1
# [9] = target: Fuc(a1-2)[GalNAc(a1-3)]Gal
# In short: as §1
# [10] = target: Fuc(a1-2)[GalNAc(a1-3)]Gal(b1-3)GalNAc(a1-3)[Fuc(a1-2)]Gal(b1-4)GlcNAc
# In short: as §1
# [11] = target: Fuc(a1-2)[GalNAc(a1-3)]Gal(b1-3)GalNAc(b1-3)Gal(a1-4)Gal(b1-4)Glc
# In short: as §1
# [12] = target: Fuc(a1-2)[GalNAc(a1-3)]Gal(b1-3)GlcNAc
# In short: as §1
# [13] = target: Fuc(a1-2)[GalNAc(a1-3)]Gal(b1-3)GlcNAc(b1-2)Man(a1-3)[Fuc(a1-2)[GalNAc(a1-3)]Gal(b1-3)GlcNAc(b1-2)Man(a1-6)]Man(b1-4)GlcNAc(b1-4)GlcNAc
# In short: as §1
# [14] = target: Fuc(a1-2)[GalNAc(a1-3)]Gal(b1-3)GlcNAc(b1-2)Man(a1-3)[Fuc(a1-2)[GalNAc(a1-3)]Gal(b1-3)GlcNAc(b1-2)Man(a1-6)]Man(b1-4)GlcNAc(b1-4)[Fuc(a1-6)]GlcNAc
# In short: as §1
# [15] = target: Fuc(a1-2)[GalNAc(a1-3)]Gal(b1-3)GlcNAc(b1-3)GalNAc
# In short: as §1
# [16] = target: Fuc(a1-2)[GalNAc(a1-3)]Gal(b1-3)GlcNAc(b1-6)GalNAc
# In short: as §1
# [17] = target: Fuc(a1-2)[GalNAc(a1-3)]Gal(b1-4)Glc
# In short: as §1
# [18] = target: Fuc(a1-2)[GalNAc(a1-3)]Gal(b1-4)GlcNAc
# In short: as §1
# [19] = target: Fuc(a1-2)[GalNAc(a1-3)]Gal(b1-4)GlcNAc(b1-2)Man
# In short: as §1
# [20] = target: Fuc(a1-2)[GalNAc(a1-3)]Gal(b1-4)GlcNAc(b1-2)Man(a1-3)[Fuc(a1-2)[GalNAc(a1-3)]Gal(b1-4)GlcNAc(b1-2)Man(a1-6)]Man(b1-4)GlcNAc(b1-4)GlcNAc
# In short: as §1
# [21] = target: Fuc(a1-2)[GalNAc(a1-3)]Gal(b1-4)GlcNAc(b1-2)Man(a1-3)[Fuc(a1-2)[GalNAc(a1-3)]Gal(b1-4)GlcNAc(b1-2)Man(a1-6)]Man(b1-4)GlcNAc(b1-4)[Fuc(a1-6)]GlcNAc
# In short: as §1
# [22] = target: Fuc(a1-2)[GalNAc(a1-3)]Gal(b1-4)GlcNAc(b1-3)Gal(b1-4)GlcNAc
# In short: as §1
# [23] = target: Fuc(a1-2)[GalNAc(a1-3)]Gal(b1-4)GlcNAc(b1-3)Gal(b1-4)GlcNAc(b1-3)Gal(b1-4)GlcNAc
# In short: as §1
# [24] = target: Fuc(a1-2)[GalNAc(a1-3)]Gal(b1-4)GlcNAc(b1-3)GalNAc
# In short: as §1
# [25] = target: Fuc(a1-2)[GalNAc(a1-3)]Gal(b1-4)GlcNAc(b1-3)[Fuc(a1-2)[GalNAc(a1-3)]Gal(b1-4)GlcNAc(b1-6)]GalNAc
# In short: as §1
# [26] = target: Fuc(a1-2)[GalNAc(a1-3)]Gal(b1-4)GlcNAc(b1-6)GalNAc
# In short: as §1
# [27] = target: Fuc(a1-2)[GalNAc(a1-3)]Gal(b1-4)[Fuc(a1-3)]GlcNAc
# In short: as §1
# [28] = target: Fuc(a1-2)[GalNAc(a1-3)]Gal(b1-4)[Fuc(a1-3)]GlcNAc(b1-3)GalNAc
# In short: as §1
# [29] = target: Fuc(a1-2)[GalNAc(a1-4)]Gal(b1-4)GlcNAc
# In short: as §1
# [30] = target: Fuc(a1-2)[GalNAc(b1-3)]Gal
# In short: as §1
# [31] = target: Fuc(a1-3)GlcNAc
# In short: as §1
# [32] = target: Fuc(a1-3)[Gal(b1-4)]Glc6S
# In short: as §1
# [33] = target: Fuc(a1-3)[Gal(b1-4)]GlcNAc
# In short: as §1
# [34] = target: Fuc(a1-3)[Gal(b1-4)]GlcNAc(b1-2)Man
# In short: as §1
# [35] = target: Fuc(a1-3)[Gal(b1-4)]GlcNAc(b1-2)Man(a1-3)[Fuc(a1-3)[Gal(b1-4)]GlcNAc(b1-2)Man(a1-6)]Man(b1-4)GlcNAc(b1-4)GlcNAc
# In short: as §1
# [36] = target: Fuc(a1-3)[Gal(b1-4)]GlcNAc(b1-2)Man(a1-3)[Fuc(a1-3)[Gal(b1-4)]GlcNAc(b1-2)Man(a1-6)]Man(b1-4)GlcNAc(b1-4)[Fuc(a1-6)]GlcNAc
# In short: as §1
# [37] = target: Fuc(a1-3)[Gal(b1-4)]GlcNAc(b1-3)Gal(b1-3)[Fuc(a1-4)]GlcNAc
# In short: as §1
binder,measurement,setting,value
B1,glycan array binding signal (z-score),[1],-0.409
same,glycan array binding signal (z-score),[2],-0.393
same,glycan array binding signal (z-score),[3],-0.272
same,glycan array binding signal (z-score),[4],-0.44
same,glycan array binding signal (z-score),[5],-0.284
same,glycan array binding signal (z-score),[6],-0.107
same,glycan array binding signal (z-score),[7],-0.416
same,glycan array binding signal (z-score),[8],-0.141
same,glycan array binding signal (z-score),[9],-0.086
same,glycan array binding signal (z-score),[10],-0.303
same,glycan array binding signal (z-score),[11],-0.373
same,glycan array binding signal (z-score),[12],0.055
same,glycan array binding signal (z-score),[13],0.099
same,glycan array binding signal (z-score),[14],-0.122
same,glycan array binding signal (z-score),[15],-0.237
same,glycan array binding signal (z-score),[16],1.81
same,glycan array binding signal (z-score),[17],-0.37
same,glycan array binding signal (z-score),[18],-0.148
same,glycan array binding signal (z-score),[19],-0.101
same,glycan array binding signal (z-score),[20],-0.185
same,glycan array binding signal (z-score),[21],-0.321
same,glycan array binding signal (z-score),[22],-0.448
same,glycan array binding signal (z-score),[23],-0.403
same,glycan array binding signal (z-score),[24],-0.338
same,glycan array binding signal (z-score),[25],-0.318
same,glycan array binding signal (z-score),[26],5.37
same,glycan array binding signal (z-score),[27],-0.267
same,glycan array binding signal (z-score),[28],-0.088
same,glycan array binding signal (z-score),[29],2.24
same,glycan array binding signal (z-score),[30],3.27
same,glycan array binding signal (z-score),[31],-0.034
same,glycan array binding signal (z-score),[32],-0.411
same,glycan array binding signal (z-score),[33],0.21
same,glycan array binding signal (z-score),[34],-0.274
same,glycan array binding signal (z-score),[35],-0.272
same,glycan array binding signal (z-score),[36],-0.388
same,glycan array binding signal (z-score),[37],-0.409
